About 40 (0.04%) of roughly 110,000 compounds were called active. The inconclusive results got no clear call from the source; some entries with a clear call stand among them for comparison. The call rests on the fitted dose curve; in most records, active means well fitted curve in the direction sought with a large enough effect in the signal ratio (not every such curve was filed as active); inconclusive means small, poorly fitted or top-dose-only effect, or a change in a side signal; inactive means flat fitted curve, though single readings scatter; the % refers to the signal ratio. Potencies of inconclusive entries are doubtful fits and often do not repeat.
Experiment: IkB Signaling;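 on IkBa stabilization activation: 0% = basal untreated cells and 100% = reference inhibitor full response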
Settings: ABC-DLBCL IkBa-CBG/CBR dual luciferase ratio (green luciferase fused to IkBa over red control in OCI-Ly3 lymphoma cells), 4 h; IkBa stabilization activation: at 57.1 µM (top of the series), scaled: untreated 0%, proteasome inhibitor 100% unless noted
How it was run: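 Luminescence ratio of IκBα-fused green versus native red beetle luciferase in OCI-Ly3 cells, 4 h post-doxycycline with compound; red signal alone, scaled from basal (0%) to zero light (-100%), flagged nonspecific or cytotoxic effects.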
With `CCOc1ccc(Br)cc1S(=O)(=O)Nc1cccc(-c2ccc(OC)nn2)c1` the IkBa stabilization activation was inconclusive: 2.9% [signal inhibitor]. With `O=c1[nH]c(=O)n([C@H]2C[C@H](O)[C@@H](CO)O2)cc1Br` the IkBa stabilization activation was inconclusive: 2.83% [signal activator]. For `Cc1ccc(Cl)cc1N1CCN(C(=O)c2ccc3c(c2)N(Cc2ccccc2)CCS3)CC1`, the IkBa stabilization activation was inconclusive: 3.16% [signal inhibitor]. In the case of `CCn1nnc2cc(C(=O)Nc3ccc(OC)cc3)ccc21`, the IkBa stabilization activation is reported as “inactive”. For `CCOC(=O)Nc1ccc2c(c1)N(C(=O)N(CC)CC)c1ccccc1CC2`, the IkBa stabilization activation was “inactive”. In the case of `COc1ccccc1CNc1nc2nc(C)c(Cl)c(=O)n2[nH]1`, the Potency is reported as inconclusive: 12.6 µM [signal inhibitor, partial curve]. In the case of `O=C(CSc1nc(=O)n(Cc2ccco2)c2c1CCC2)NCc1ccc(Cl)cc1`, the IkBa stabilization activation is reported as inconclusive: 4.78% [signal inhibitor]. For `CC1(C)Cc2nc3sc4c(SCC(=O)NCc5ccco5)ncnc4c3cc2CO1`, the IkBa stabilization activation was “inactive”. In the case of `Cc1ccc(NC(=O)CCn2c(=O)c3cccn3c3ccccc32)cc1Cl`, the IkBa stabilization activation is reported as inconclusive: -0.0195% [signal inhibitor]. With `COc1cc(OC)c(NC(=O)Cn2cnc3sc(C)c(S(=O)(=O)N4CCC(C)CC4)c3c2=O)cc1Cl` the IkBa stabilization activation was inconclusive: 1.52% [signal inhibitor]. For `COc1ccc2c(c1)sc1nc(-c3ccccc3)cn12`, the Potency was inconclusive: 10 µM [rising, partial curve]. With `Cc1cc(C)c2nc(N(Cc3cccnc3)C(=O)Cc3ccccc3)sc2c1` the IkBa stabilization activation was inconclusive: -1.21% [signal inhibitor]. In the case of `Cc1ccc(C(=O)N2CCN(Cc3cc(=O)n4nc(-c5ccccc5)sc4n3)CC2)cc1`, the IkBa stabilization activation is reported as inconclusive: -2.86% [signal inhibitor]. With `Cc1cc(NC(=O)Nc2nnc(N3CCCCC3)s2)ccc1Br` the IkBa stabilization activation was inconclusive: -0.0707% [signal inhibitor]. For `COc1ccccc1CNC(=O)CSc1nc(=O)[nH]c2c1CCCC2`, the IkBa stabilization activation was inconclusive: 6.34% [signal inhibitor]. With `CCN(Cc1ccccc1)C(=O)Cn1c(=O)n(-c2ccc(Cl)c(Cl)c2)c(=O)c2c(C)c(C(=O)N(C)C)sc21` the IkBa stabilization activation was “inactive”. With `COc1cccc(-c2nc(CS(=O)(=O)CC(=O)NCCc3ccc(Cl)cc3)c(C)o2)c1` the IkBa stabilization activation was inconclusive: 3.4% [signal inhibitor]. In the case of `Cc1ccc(-n2ncc3c(Nc4cccc(C(F)(F)F)c4)ncnc32)cc1C`, the IkBa stabilization activation is reported as inconclusive: 0.483% [signal inhibitor]. In the case of `CC1CCCCN1C(=O)CSc1c2c(nc3cc(Cl)ccc13)CCCC2` (stereo not given), the IkBa stabilization activation is reported as inconclusive: 5.42% [signal inhibitor]. For `CCOCCn1c(=O)c2c(nc3n2CCN3c2ccc(C)c(C)c2)n(C)c1=O`, the IkBa stabilization activation was inconclusive: 3.79% [signal inhibitor]. For `CC(C)c1ccc(NC(=O)c2cnc3sc(N4CCOCC4)nn3c2=O)cc1`, the IkBa stabilization activation was inconclusive: 9.44% [signal inhibitor]. With `NS(=O)(=O)c1ccc(NC(=O)c2csnn2)cc1` the IkBa stabilization activation was “inactive”. In the case of `CCOc1cc(C2C(C#N)=C(N)Oc3n[nH]c(-c4ccccc4)c32)ccc1O` (stereo not given), the IkBa stabilization activation is reported as “inactive”. For `COc1ccc(NC(=O)CN(C)S(=O)(=O)c2ccc3c(c2)c(=O)n(C)c(=O)n3C)cc1`, the IkBa stabilization activation was inconclusive: 0.933% [signal inhibitor]. With `COc1ccc(OC)c(NC(=O)Cn2cnc3onc(-c4ccc(Cl)cc4)c3c2=O)c1` the IkBa stabilization activation was inconclusive: 5.37% [signal inhibitor]. For `COc1ccc(-c2nc3ccc(Cl)cn3c2Nc2ccc(C)cc2)cc1`, the IkBa stabilization activation was inconclusive: -0.739% [signal inhibitor]. For `CCCCNC(=O)c1cn(C)c2ccc(S(=O)(=O)N3CCCC3)cc2c1=O`, the IkBa stabilization activation was inconclusive: -1.93% [signal inhibitor]. In the case of `Cc1ccc(C(=O)NCC(c2ccco2)S(=O)(=O)c2ccc(Cl)cc2)cc1C` (stereo not given), the IkBa stabilization activation is reported as inconclusive: 1.85% [signal inhibitor]. In the case of `Cc1ccc(NC(=O)Cn2c(=O)c3ccc(Cl)cc3n3nncc23)cc1`, the IkBa stabilization activation is reported as “inactive”. With `COc1cccc(-c2csc(-c3c(N)c(C(=O)c4ccc5c(c4)OCO5)n4ccccc34)n2)c1` the IkBa stabilization activation was inconclusive: 2.33% [signal inhibitor]. For `CCOc1ccc(C2C(C(=O)Nc3ccccc3)=C(C)Nc3nc(-c4ccccc4)nn32)cc1OC` (stereo not given), the IkBa stabilization activation was inconclusive: 12.7% [signal inhibitor]. For `Cc1cccc(OCc2nc(C#N)c(N3CC(C)CC(C)C3)o2)c1` (stereo not given), the IkBa stabilization activation was “inactive”. With `COCCn1c(=O)c(-c2ccc(OC)cc2)nc2cnc(Nc3ccccc3)nc21` the IkBa stabilization activation was inactive: -1.49% [at 11.4 µM, scaled: untreated 0%, proteasome inhibitor 100%]. For `CCCCn1c(SCc2nnc(-c3ccccc3)o2)nc2c1c(=O)n(C)c(=O)n2C`, the IkBa stabilization activation was inconclusive: 4.22% [signal inhibitor]. With `O=c1c2cnn(-c3ccc(F)cc3)c2ncn1Cc1ccccc1Cl` the IkBa stabilization activation was “inactive”. For `COc1cc(NC(=O)Nc2ccccc2OC)c(OC)cc1NC(=O)CN1CCCCC1`, the Potency was inconclusive: 0.398 µM [signal inhibitor, full curve]. In the case of `CCCCC(CC)COC(=O)COc1ccc(Cl)cc1Cl` (stereo not given), the IkBa stabilization activation is reported as “inactive”. For `Cc1ccc(NC(=O)c2ccc3ccccc3n2)nc1`, the IkBa stabilization activation was inconclusive: 10.9% [signal inhibitor]. With `CCCOc1cccc(C2c3c(oc4ccc(F)cc4c3=O)C(=O)N2CCCN2CCOCC2)c1` (stereo not given) the IkBa stabilization activation was “inactive”. In the case of `COc1ccc(OCc2cccc(C(=O)O)c2)cc1`, the Potency is reported as inconclusive: 3.16 µM [signal inhibitor, full curve]. For `Cc1ccc(CN(Cc2ccco2)C(=O)c2ccccc2Br)o1`, the IkBa stabilization activation was inconclusive: 0.246% [signal inhibitor]. For `CCOc1ccccc1C1CC(=O)Nc2cc3c(cc21)OCCO3` (stereo not given), the IkBa stabilization activation was “inactive”. For `CCn1c(Cc2ccccc2)nnc1SCC(=O)Nc1ccc(N2CCOCC2)c(Cl)c1`, the IkBa stabilization activation was “inactive”. For `CC1CCN(C(=O)c2cc3c(=O)n(C)c4cc(Cl)ccc4c3s2)CC1`, the IkBa stabilization activation was “inactive”. With `Cc1nc(-c2ccc(S(=O)(=O)N3CCN(c4cccc(C(F)(F)F)c4)CC3)cc2)co1` the IkBa stabilization activation was “inactive”. With `CCCOc1ccc(-c2nonc2NC(=O)c2ccco2)cc1OCCC` the IkBa stabilization activation was “inactive”. For `Cc1cc(Br)cc(C)c1NC(=O)c1sc2ncn(Cc3cccc(F)c3)c(=O)c2c1C`, the IkBa stabilization activation was inconclusive: -1.69% [signal inhibitor]. For `Cc1ccccc1N1C(=O)c2cccc3c(N(C)CCO)ccc(c23)C1=O`, the IkBa stabilization activation was inconclusive: -1.13% [signal inhibitor]. With `Cn1c(=O)c2c(nc(CN3CCc4ccccc4C3)n2Cc2cccc(Cl)c2)n(C)c1=O` the IkBa stabilization activation was inconclusive: 4.8% [signal inhibitor]. For `Cc1ccc(-n2cnc3cc(C(=O)NCCC4=CCCCC4)ccc32)c(C)c1`, the IkBa stabilization activation was inconclusive: -7.01% [signal inhibitor]. For `Cc1ccc(-c2cc3c(nn2)-c2ccccc2C3=O)cc1`, the IkBa stabilization activation was inconclusive: 10.9% [signal inhibitor]. In the case of `CCC(c1nnnn1CS(=O)(=O)c1ccc(C)cc1)N1CCN(c2nc3ccccc3s2)CC1` (stereo not given), the IkBa stabilization activation is reported as inconclusive: 2.72% [signal inhibitor]. For `CCc1ccc(NC(=O)c2sc(-n3nc(C)c(CCC(C)C)c3C)nc2C)cc1`, the IkBa stabilization activation was inconclusive: -0.548% [signal inhibitor]. In the case of `COc1ccc(OCc2ccc(C(=O)O)cc2)cc1`, the Potency is reported as inconclusive: 20 µM [signal inhibitor, partial curve]. With `O=C(Nc1ccc2c(c1)OCCO2)c1cccnc1` the IkBa stabilization activation was “inactive”. For `COc1ccc(NC(=O)c2ccc3oc(=O)c(S(=O)(=O)c4ccc(F)cc4)cc3c2)cc1OC`, the Potency was inconclusive: 10 µM [rising, partial curve]. In the case of `Cc1c(C(=O)Nc2ccc(F)cc2F)oc2c1-c1nn(Cc3c(F)cccc3Cl)cc1CC2`, the IkBa stabilization activation is reported as inconclusive: 2.19% [signal inhibitor]. For `COc1ccc(C)cc1NC(c1nnc(-c2ccccc2)o1)c1ccc(F)cc1Cl` (stereo not given), the IkBa stabilization activation was inconclusive: 7.17% [signal inhibitor]. With `CCN1CCN(C(=O)Nc2ccc(Cc3ccc(NC(=O)N4CCN(CC)CC4)cc3)cc2)CC1` the IkBa stabilization activation was “inactive”. With `O=C(CN1CCN(C(=O)c2ccco2)CC1)Nc1ccc(Cl)c(C(F)(F)F)c1` the IkBa stabilization activation was inconclusive: 1.91% [signal inhibitor]. In the case of `CCc1ccc(N2CC(c3nnc(NC(=O)c4ccco4)s3)CC2=O)cc1` (stereo not given), the IkBa stabilization activation is reported as inconclusive: 2.76% [signal inhibitor]. With `CCOC(=O)c1nnn(-c2nonc2N)c1CNc1ccc(C)c(Br)c1` the IkBa stabilization activation was inconclusive: 6.59% [signal inhibitor]. With `Cc1ccc(Nc2nc(-c3ccccc3)nc3ccccc23)cc1` the IkBa stabilization activation was “inactive”. For `COc1ccccc1NC(=O)CSc1oc(-c2ccco2)nc1S(=O)(=O)c1ccc(C)cc1`, the IkBa stabilization activation was inconclusive: 0.959% [signal inhibitor]. In the case of `CCOc1ccc(NC(=O)c2oc3ccccc3c2NC(=O)C(C)(C)C)cc1`, the IkBa stabilization activation is reported as inconclusive: 1.14% [signal inhibitor]. In the case of `Cc1nn(-c2cccc(Cl)c2)c2c1C(c1cccnc1)C(C#N)=C(N)O2` (stereo not given), the IkBa stabilization activation is reported as inconclusive: 2.27% [signal inhibitor]. With `O=C(CC1N=C2c3ccccc3N=C(SCC(=O)Nc3ccc(F)cc3)N2C1=O)NCc1ccco1` (stereo not given) the IkBa stabilization activation was inconclusive: 11.4% [signal inhibitor]. With `O=C(c1cc(-c2cccc(O)c2)on1)N1CCOCC1` the IkBa stabilization activation was “inactive”. With `Cc1ccc(C(=O)Nc2nnc(S(=O)(=O)N(C)Cc3ccc(Cl)cc3)s2)cc1` the IkBa stabilization activation was inconclusive: 0.844% [signal inhibitor]. In the case of `COc1cc(Nc2ncc3c(n2)CCN(Cc2ccc(OC(C)C)c(OC)c2)C3)cc(OC)c1`, the IkBa stabilization activation is reported as inconclusive: 2.94% [signal inhibitor].
Potency means the concentration at half of the fitted maximal effect.
